Among the data in PMC12136788 are binding signal values, retold here.

The list shows a part of the results.

T1: UNK ZnF1-6 (called full-length) (human, UniProt Q9C0B0 30-357)
T1 sequence: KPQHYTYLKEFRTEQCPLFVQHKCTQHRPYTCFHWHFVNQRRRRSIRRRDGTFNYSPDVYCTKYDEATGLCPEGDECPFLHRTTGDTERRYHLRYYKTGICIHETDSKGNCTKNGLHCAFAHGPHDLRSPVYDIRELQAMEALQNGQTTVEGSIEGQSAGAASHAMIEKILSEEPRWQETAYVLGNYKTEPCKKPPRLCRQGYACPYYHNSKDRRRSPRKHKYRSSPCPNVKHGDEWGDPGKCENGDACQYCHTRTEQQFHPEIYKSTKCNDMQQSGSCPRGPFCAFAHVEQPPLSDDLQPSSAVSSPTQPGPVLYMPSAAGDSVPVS

B1: chr11:20121310:20121411:+|3pUTR|ENSG00000166833|msi1|total|mutant (ssRNA)
RNA: GGGAGUUCUACAGUCCGACGAUCAUUGUAACACCGAAAUUGUAAAUAAUUGAUUAAAGUGCUGCAUUUUGAUGAAUUUUUUCCCGCCAUUUUUAAAGAGAAAACCCGGAAUUGAGUAUUUUGUGUACGGUAUGUUUCCAUCCUCAACAGAGGAUUGAGCAUCA
B2: chrX:65741840:65741941:+|3pUTR|ENSG00000147065|msi1|total|mutant (ssRNA)
RNA: GGGAGUUCUACAGUCCGACGAUCAAAUUGUUUUUGGAGGGGUUUAUGCUCAAUCCAUGUUCUAUUUCAGUGCCAAUAAAAUUCCGGAAGACUUCACAGUGACUCAAUCGUUCUUUGUGGUAUGAGUGGGCCGCUGUAAGAUAUCAACAGAGGAUUGAGCAUCA
B3: chr3:170361105:170361226:+|CDS|ENSG00000136603|unk|FALSE|bound_elsewhere (ssRNA)
RNA: GGGAGUUCUACAGUCCGACGAUCAAGCUCAUUGGCCCAGUUAAAGGAAACUGGCAGUGCCUUUGAAGUGGAGCAUGAAUGCCUAGGCAAAUGUCAGGGUUUAUUUGCACCCCAGUUUUAUGUUCAGCCUGAUGCUCCGUGUAUCAACAGAGGAUUGAGCAUCA
B4: chrX:52062232:52062664:-|CDS|ENSG00000187243|control|control|control (ssRNA)
RNA: GGGAGUUCUACAGUCCGACGAUCGGCCACGUGGAGAGCUGGCGUCAGCAGUGGCACCAAUGGAGGGGCCAGCACCAGCGUCCUAGAUGGCCCCAGCACCAGCUCCACCAUCCGGACCAGAAAUGCUGCCAGAGCUGGCGCCAGCAACAGAGGAUUGAGCAUCA
B5: chr22:39520512:39520623:+|5pUTR|ENSG00000128272|unk|FALSE|bound_elsewhere (ssRNA)
RNA: GGGAGUUCUACAGUCCGACGAUCUCUAUAAAGGGCCGGCGGGCGGCCACGGCAGCCAUUUCUACUUUGCCCGCCCACAGAUGUAGUUUUCUCUGCGCGUGUGCGUUUUCCCUCCUCCCCGCCCUCAGGGUCCACGGCCACCAUCAACAGAGGAUUGAGCAUCA
B6: ENSG00000070961:be:win_3351|CDS|ENSG00000070961|bound_else_gene|NA|bound_elsewhere_windowed (ssRNA)
RNA: GGGAGUUCUACAGUCCGACGAUCGAUUCGAGUGGUGAAUGCAUUUCGUAGUUCUUUAUAUGAAGGGUUAGAAAAACCGGAAUCAAGAAGUUCGAUUCACAACUUUAUGACACAUCCUGAGUUUAGGAUAGAAGAUUCAGAGCCCAACAGAGGAUUGAGCAUCA
B7: ENSG00000070961:be:win_3751|3pUTR|ENSG00000070961|bound_else_gene|NA|bound_elsewhere_windowed (ssRNA)
RNA: GGGAGUUCUACAGUCCGACGAUCUAUUCUUGUCUUUGGACUUCAACAGAAGACACACUUGUACGAAUGUAGAUUUAUUUUUUUAAAAAAAAAAAAGCAAAGCUUUCUGCCAGACUGAGGGUGCUUUUUGGGGGGUGGGAGAAACAACAGAGGAUUGAGCAUCA
B8: ENSG00000136451:be:win_1251|CDS|ENSG00000136451|bound_else_gene|NA|bound_elsewhere_windowed (ssRNA)
RNA: GGGAGUUCUACAGUCCGACGAUCAGUGGCAGCUGCAAUGAGCAUGAGAAGUCCAGUAAAUGUUUCAAGUGCAGUUAACAUAACCAGCCCAAUGAACAUAGGGCAUCCUGUAACUAUAACCAGUCCAUUAUCCAUGACCUCUCCCAACAGAGGAUUGAGCAUCA
B9: chr2:135840511:135840612:-|3pUTR|ENSG00000076003|msi1|FALSE|unique (ssRNA)
RNA: GGGAGUUCUACAGUCCGACGAUCGCUUCAGCACUUCCUUUGGUGUGUUUCCUGUCCCAGUGAAGUUGGAACCAAAUAAUGUGUAGUCUCUAUAACCAAUACCUUUGUUUUCAUGUGUAAGAAAAGGCCCAUUACUUUUAAGGUCAACAGAGGAUUGAGCAUCA
B10: chrX:53432280:53432385:-|CDS|ENSG00000072506|unk|total|mutant (ssRNA)
RNA: GGGAGUUCUACAGUCCGACGAUCUGAGAAGGAUGUGCAAACAGCUCUGGCUCCCGCAAAAGGAAAGUUUGGCCGUGUGGAUGCCGCUGUCAACUGUGCAGGCAUCGCGGUGGCCCGCAAGACGUACAACUUAAAGAAGGGCCACAACAGAGGAUUGAGCAUCA
B11: chr11:134382709:134383006:-|CDS|ENSG00000109956|control|control|control (ssRNA)
RNA: GGGAGUUCUACAGUCCGACGAUCCGGGGCAGGGAAGGUGGUCGGCUGGAAGACGGUGUUUGACCCCCACCGGCCAUUUGCAAUAGACAUGGCUGGAUUUGCCGUCAACCUGCGGCUCAUUCUGCAGCGAAGCCAGGCCUACUUCAACAGAGGAUUGAGCAUCA
B12: chr5:173316791:173316892:-|3pUTR|ENSG00000113739|msi1|FALSE|unique (ssRNA)
RNA: GGGAGUUCUACAGUCCGACGAUCGGAAACCUUAUACCCAGAGGAAAAUACACACCUGGGGAGUACAUUUGACAAAUUUCCCUUAGGAUUUCGUUAUCUCACCUUGACCCUCAGCCAAGAUUGGUAAAGCUGCGUCCUGGCGAUCAACAGAGGAUUGAGCAUCA
B13: chr7:139028693:139028797:-|CDS|ENSG00000146858|unk|FALSE|unique (ssRNA)
RNA: GGGAGUUCUACAGUCCGACGAUCUUUCAGAUAAUCUCCACCUACAAGCAUAUGAAGCUGCACAAGAUGCUUGAAAAUACAGGUAGGAAUAUCCAAGAAGGACAGAGAAGUAUCAGCGAUAUGGUUUUGCGAUGCUUCACUGUGCAACAGAGGAUUGAGCAUCA
B14: chr1:62864655:62864756:+|3pUTR|ENSG00000125703|unk|FALSE|unique (ssRNA)
RNA: GGGAGUUCUACAGUCCGACGAUCUUUGUUAACUGUGAUAUGCAUACACUUAUAUAAGCAGAAUUAUGAGUUAAAGUAAUACUUAGCAAUAUGAUUUUAUAAUGGCUCCUCAUUAUGCUUGCUGUUGAACCUUUUAUGAGGAGUCAACAGAGGAUUGAGCAUCA

The test has as its target T1, UNK ZnF1-6 (called full-length). The test can be described thus: nsRBNS (natural sequence RNA bind-n-seq); RBNS binding buffer (assumed for nsRBNS): 25 mM Tris pH 7.5, 150 mM KCl, 3 mM MgCl2, 0.01% Triton X-100, 500 ug/ml BSA, 20 U/ml SUPERase-In, 4 C; UNK is unkempt and MSI1 is Musashi-1; names of the RNAs are library labels; protein concentration not given here; high values mean tight binding.
For B1, the binding signal is 0.37 enrichment R.
Next, B2: 0.293 enrichment R; B3: 0.491 enrichment R.
The result for B4 reads 0.667 enrichment R.
The result for B5 reads 0.915 enrichment R; that for B6, 0.389 enrichment R.
B7 had a binding signal of 1.39 enrichment R.
The result for B8 reads 0.534 enrichment R.
Turning to B9, the binding signal is 0.616 enrichment R.
For B10, the binding signal turned out to be 0.624 enrichment R.
Next, B11: 0.964 enrichment R; B12: 0.601 enrichment R; B13: 0.324 enrichment R.
For the molecule B14, the binding signal came out at 1.15 enrichment R.
